# Data reported in PubChem BioAssay AID686978 (National Center for Advancing Translational Sciences (NCATS), 2013).
# Hit rate of the full screen: of about 420,000 compounds, about 64,000 (15%) were called active. Inconclusive means that the source gave no clear call. Such entries were picked first, then a sample of the others. The call rests on the fitted dose curve; in most records, active means well fitted inhibition curve with a large enough effect; inconclusive means small, poorly fitted or top-dose-only effect; inactive means flat fitted curve, though single readings scatter. Potencies of inconclusive entries are left out as doubtful fits.
# Assay: qHTS for Inhibitors of human tyrosyl-DNA phosphodiesterase 1 (TDP1): qHTS in cells in absence of CPT; further: nearly all actives have a fitted effect of over 55% in size
# Settings: DT40 Tdp1-/- hTDP1 cells, no CPT, ATP luminescence, 48 h; series mostly up to 46.2 µM
# Procedure, shortened: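 Growth of hTDP1-complemented DT40 Tdp1-knockout cells is measured by ATP luminescence after at least 48 hr compound exposure at 37 °C, with DMSO substituting for the 20 nM CPT used in the parallel screen.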
# Potency means the concentration at half of the fitted maximal effect; tags describe the fitted curve by direction and shape.
row,Compound,Potency
1,CN(C(=O)c1ccc(N2CCCCC2)c([N+](=O)[O-])c1)C1(C)CCS(=O)(=O)C1 (stereo not given),"inconclusive [inhibitor, partial curve]"
2,CSc1nc(C)cc(C)c1S(=O)(=O)c1ccccc1C,"inconclusive [inhibitor, single point]"
3,Cc1ccc(Cl)cc1N1CCN(Cc2nnc(-c3ccc4c(c3)OCO4)o2)CC1,"inconclusive [inhibitor, single point]"
4,Cc1cc(SCC(=O)NC(=O)NCc2ccco2)nc2ccccc12,inactive
5,Cc1sc2nc(COC(=O)CNC(=O)c3ccc(C(C)(C)C)cc3)[nH]c(=O)c2c1C,inactive
6,CC(=O)NCCNc1ncnc2ccc(-c3cccc(NS(C)(=O)=O)c3)cc12,inactive
7,CCN(CC)S(=O)(=O)c1cccc(-c2nnc(SCC(=O)c3cc(C)n(C4CC4)c3C)o2)c1,active: 16.4 µM
8,N=C1/C(=C\c2coc3ccc(O)cc3c2=O)C(=O)N=C2SC=CN12,"inconclusive [inhibitor, single point]"
9,COc1ccc(CCNC(=O)C2CCCN(c3nc4ccccc4s3)C2)cc1OC (stereo not given),"inconclusive [inhibitor, partial curve, poor fit]"
10,COc1ccc(C(=O)NC(C)c2ccc(-n3ccnc3)cc2)cc1[N+](=O)[O-] (stereo not given),"inconclusive [inhibitor, partial curve]"
11,O=C1CCC(C(=O)OCC(=O)C23CC4CC(CC(C4)C2)C3)N1 (stereo not given),inactive
12,Cc1ccc(CNC(=O)CSc2n[nH]c(-c3ccc(F)cc3)n2)cc1,active: 16.4 µM
13,Cc1c2cnn(CC(=O)NCCCN3CC(C)CC(C)C3)c(=O)c2c(C)n1Cc1ccccc1Cl (stereo not given),"inconclusive [inhibitor, single point]"
14,CC(=NCc1ccccc1)C1=C(O)COC1=O,inactive
15,CCOc1ccc(C(=O)Nc2c3c(nn2C(C)(C)C)CSC3)cc1OCC,inactive
16,Nn1cnnc1N/N=C\c1ccc(-c2ccccc2[N+](=O)[O-])o1,inactive
17,COc1ccc(OC)c(CCNC(=O)C(C)n2nc(C)c3c(C)n(-c4ccccc4)nc3c2=O)c1 (stereo not given),"inconclusive [inhibitor, single point]"
18,CCc1ccc2[nH]c(=O)c(CN(CCN(C)C)C(=O)Nc3ccccc3OC)cc2c1,"inconclusive [inhibitor, partial curve]"
19,CN1CCN(C(=O)c2cc3c(c(-c4cccc(-c5cc6ccccc6o5)c4)n2)[C@H](CCO)N(S(=O)C(C)(C)C)C3)CC1 (stereo not given in full),"inconclusive [inhibitor, single point]"
20,CCN(C(=O)c1cccc(F)c1)c1ccccc1C,"inconclusive [inhibitor, single point]"
21,CCN(C(=O)COC(=O)/C=C/c1c(C)nn(-c2ccccc2)c1C)C1CCS(=O)(=O)C1 (stereo not given),inactive
22,CCOc1ccc2oc(C(=O)OCC(=O)NC3CCCCC3)c(C)c2c1,inactive
23,CCC(C)NC(=O)c1nn(-c2ccc(C)cc2)c(=O)n(C)c1=O (stereo not given),inactive

row,Compound,Potency
1,CC(C)c1c(C(=O)N/N=C/c2ccc(OCc3ccc(F)cc3)cc2)nnn1-c1nonc1N,"inconclusive [inhibitor, partial curve]"
2,CCOc1ccc(NC(=O)Cn2nnc(-c3ccccc3F)n2)cc1,"inconclusive [inhibitor, single point]"
3,COCCNC(=O)C1Cc2c(-c3ccc(NC(C)=O)cc3)ccnc2O1 (stereo not given),"inconclusive [inhibitor, single point]"
4,COC(=O)[C@@]1(Sc2ccc(C)cc2)CC(=O)N[C@@H]1c1ccc(C(F)(F)F)cc1,active: 20.6 µM
5,CCCCCCCc1nc2nc(C)c(Br)c(=O)n2[nH]1,"inconclusive [inhibitor, single point]"
6,Cc1ccc(Cn2cc(CN3CC(N4CCN(C5CCN(C)CC5)CC4)CS3(=O)=O)nn2)cc1 (stereo not given),inactive
7,NC(=S)NN=C1c2ccccc2-c2ccccc21,active: 2.91 µM
8,O=C(NC1CCN(Cc2ccccc2)CC1)C1CCN(S(=O)(=O)c2ccccc2)CC1,"inconclusive [inhibitor, partial curve]"
9,NC(=O)c1ccc(NC(=O)c2cnc3ccccc3n2)cc1,"inconclusive [inhibitor, single point]"
10,C#C[C@]1(O)CC[C@H]2[C@@H]3CCC4=CCCC[C@@H]4[C@H]3C(=C)C[C@@]21CC,inactive
11,Cc1ccc2cc(C#N)c(NCc3ccco3)nc2c1,"inconclusive [inhibitor, single point]"
12,Cc1cc(C)c(C)c(S(=O)(=O)N2CCC(C(=O)NNC(=O)c3ccccc3O)CC2)c1C,active: 16.4 µM
13,CSc1nc2ccccc2cc1/C=C(\C#N)c1cccc(Cl)c1,"inconclusive [inhibitor, single point]"
14,N#Cc1cccc(OCCCN2CCC(C(O)(c3ccccc3)c3ccccc3)CC2)c1,active: 16.4 µM
15,CNC(=O)CSc1nc2cccnc2n1C1CCCCC1,"inconclusive [inhibitor, single point]"
16,CCOc1cc(C(c2c(O)nc(SC)[nH]c2=O)c2c(O)nc(SC)[nH]c2=O)ccc1O,inactive
17,CCOc1ccc(NC(=O)CN2CCN(CC(=O)Nc3cc(OC)cc(OC)c3)CC2)cc1,inactive
18,O=C(CC1CCCCC1)N1CCCC(c2nc(-c3ccc(S(=O)(=O)N4CCCC4)cc3)no2)C1 (stereo not given),active: 15.8 µM
19,CCCCc1cc(=O)oc2cc(OCC(=O)Nc3cccnc3)c(Cl)cc12,"inconclusive [inhibitor, partial curve]"
20,COCCCNC(=O)C1CCN(c2nn3cc(-c4ccc(F)cc4)nc3s2)CC1,"inconclusive [inhibitor, partial curve]"
21,CCC1CN(CC(=O)NC(C)c2c(C)nn(C)c2C)Cc2cc(OC)ccc2O1 (stereo not given),inactive
22,CCN(CC)C(=O)[C@H]1C[C@H](CC(=O)NCCc2ccccn2)C(=O)N2CCc3c([nH]c4ccc(Cl)cc34)[C@]12C,active: 20.6 µM
